# Source: the supplement of paper PMC6531468
# The other results are listed elsewhere or left out. Read counts after selection give these values, which scatter widely. Scores sum up all selected molecules that hold the word; the word was not tested alone.
# Target: IMP3 full-length (UniProt O00425)
# Assay: 6-mer SELEX enrichment z-score vs GST control; IMP3 is the RNA-binding protein IGF2BP3; higher = more enriched by binding
# Details: construct: FL IMP3 (1-579); SELEX round: R4
# Procedure: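 SELEX-seq with GST-tagged full-length IMP3 and an N40 RNA pool, round 4. Each 6-mer is scored as an enrichment z-score of sequence tags containing it, normalised to the matching GST SELEX round. RNA written as DNA (T = U).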
# Chain of UniProt O00425 (O00425 whole entry): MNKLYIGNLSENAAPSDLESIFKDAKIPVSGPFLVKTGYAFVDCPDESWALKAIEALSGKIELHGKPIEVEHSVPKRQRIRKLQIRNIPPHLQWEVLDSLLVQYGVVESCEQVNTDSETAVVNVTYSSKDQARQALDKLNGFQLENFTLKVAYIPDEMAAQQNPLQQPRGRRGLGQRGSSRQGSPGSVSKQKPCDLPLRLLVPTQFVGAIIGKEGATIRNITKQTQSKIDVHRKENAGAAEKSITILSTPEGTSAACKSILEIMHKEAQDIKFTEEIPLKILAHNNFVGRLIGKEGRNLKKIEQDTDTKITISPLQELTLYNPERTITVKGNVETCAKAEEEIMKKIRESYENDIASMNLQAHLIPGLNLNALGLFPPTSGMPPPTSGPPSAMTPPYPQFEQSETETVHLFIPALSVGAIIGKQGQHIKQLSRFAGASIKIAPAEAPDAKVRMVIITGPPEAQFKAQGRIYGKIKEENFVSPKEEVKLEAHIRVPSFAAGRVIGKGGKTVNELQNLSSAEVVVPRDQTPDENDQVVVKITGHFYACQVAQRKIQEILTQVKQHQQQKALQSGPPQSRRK
row,Sequence,6-mer SELEX enrichment z-score
1,CGTACT,-0.476
2,GCACCA,1.46
3,GTAACC,-1.09
4,CCGACC,-1.82
5,CGTCAC,0.364
6,TGCGTA,-1.56
7,TGTACG,-0.153
8,CCCAGT,-0.301
9,CCATTT,0.38
10,TAAACC,-1.85
11,TTTGCT,0.067
12,CCGTTA,-0.033
13,GACTAA,-0.935
14,GTTTTG,-0.242
15,GAGGTT,0.131
16,TCGAAT,-0.365
17,TTTGCG,-0.312
18,CAGACG,0.111
19,CAATGC,0.232
20,GTTTCG,-0.049

row,Sequence,6-mer SELEX enrichment z-score
1,AGTCCA,0.353
2,GCATTA,0.568
3,GCAACC,0.465
4,GCTACG,-0.063
5,TAGATT,-0.022
6,TTTGCA,0.353
7,AGTCAC,0.67
8,TATCGA,-0.593
9,TGCATC,1.28
10,TTTCGG,0.225
11,CGGTGG,0.407
12,AGATAA,-0.214
13,GGTAAC,-0.218
14,TCGTGC,-0.105
15,AACCGC,-0.685
16,TTGAGA,-0.65
17,TTTGGA,-0.183
18,TCTCTG,0.039
19,TCGTGG,0.019
20,TGCCAC,0.062
